Assay results: ChEMBL document CHEMBL4888484, “Replenishing the malaria drug discovery pipeline: Screening and hit evaluation of the MMV Hit Generation Library 1 (HGL1) against asexual blood stage Plasmodium falciparum ,using a nano luciferase reporter read-out” (2022)
About 540 (0.36%) of roughly 150,000 compounds showed an effect of 50% or more. This is one part of the list.

System: Plasmodium falciparum
Experiment: Primary screen in NF54 nanoGlo assay, in single point, at 2uM, 72h; a lower Z score goes with more inhibition
Type: functional, Erythrocyte
Conditions: timepoint 72 hour

SMILES	% Inhibition [%]	Z score
O=C(Cc1nnc(-c2ccc3ncccc3c2)o1)Nc1ccc(F)cc1Cl	-10	1
O=C(NCC(=O)N1CC[C@H](Oc2ncccc2Br)C1)OCc1ccccc1	-3	0.63
O=C(c1cc(Br)ccc1Cl)N1CC(CN2C(=O)CCC2=O)C1	-18	2.33
O=c1ccn(-c2ccc(F)c(F)c2)nc1-c1nc(-c2ccccc2)no1	-2	0.3
C1CCC(n2nc(C3CC3)nc2C2CCC2)CC1	-14	1.39
O=C(NC1CCCC1)C1CCN(S(=O)(=O)c2cc(Cl)ccc2Cl)CC1	-12	1.66
CN(C(=O)C(C)(C)Nc1ncc(C(F)(F)F)cc1Cl)c1ccc(Cl)cc1	59	-7.64
Cc1ccc(N2C[C@@H](C(=O)NCc3nnc(C4CC4)o3)CC2=O)cc1	-12	1.6
Cc1cccc2c(=O)n(CC(=O)NCCCC3(C4OCCO4)CCCCCC3)cnc12	1	-0.18
Cc1nc(CCCNC(=O)CC[C@H](C)N2CCN(C)CC2)sc1C	-2	0.24
COc1ccc(Br)cc1CN	-9	1.75
CC(C)[C@@H]1CCCN1C(=O)CCn1nnc2ccccc2c1=O	-4	0.48
CS(=O)(=O)N1CC[C@H](n2cc(COCC3CC3)nn2)C1	-5	0.88
O=C(Nc1cnn(CCN2CCCCC2)c1)C(=O)Nc1cccc2cccnc12	-15	2.43
O=C(NC[C@H]1CCc2ccccc2O1)c1ccn2nnnc2c1	2	-0.32
CC(C)CN1C[C@@H]2CN(C(=O)Nc3ccc(F)cc3)CCN2C(C)(C)C1	-12	1.52
CCCC(=O)N1CC(OCc2ccc(Cl)cc2)C1	-5	0.73
CC(C)Cn1nccc1C(=O)NCc1ccnc(C#N)c1	6	-1.1
O=C(NC1CCN(c2[nH]cnc3ncnc2-3)CC1)C12CC(c3ccccc3)(C1)C2	0	-0.06
Cn1ncc(Cl)c1C(=O)NC[C@H]1CCCO1	3	-0.44
CC(C)(C)C[C@H]1CCCN1Cc1ccc2cn[nH]c2c1	-7	1
O=C(CCc1ccc2c(c1)OCO2)Oc1ccc(N2CCCC2=O)cc1	1	-0.1
CC(C)CNC(=O)Cc1cccc(N(Cc2ccc(F)cc2)C(=O)CC(C)C)c1	-12	1.22
CCc1ccc(-n2ncc3c2NC(=O)C[C@]32C(=O)N(CC(N)=O)c3ccccc32)cc1	-4	0.43
C[C@H](O)C1CCN(C(=O)OC(C)(C)C)CC1	-3	0.63
CCc1nc(-c2ccccc2)c(-c2ccccc2)c2cc(OC)c(OC)cc12	-7	1.09
O=C(CCc1c(-c2ccc(Cl)cc2)nc2ccc(-c3ccccc3Cl)cn12)NCCN1CCOCC1	-1	0.14
CCN(CC)S(=O)(=O)Cc1cccc(C)c1	-9	1.21

SMILES	% Inhibition [%]	Z score
Cc1cc(NC(=O)c2sc(-c3cn(C)c4ncccc34)nc2C)ccc1F	-8	1.44
CC1CCN([C@@H](CNS(=O)(=O)c2ccc(F)cc2F)c2cccs2)CC1	-16	1.42
OC1=Nc2c(ncn2-c2cccnc2)[C@@H](c2ccc(C(F)(F)F)cc2)C1	7	-1.1
CCc1cc(NC(=O)C(=O)NCc2ccc(C#N)cc2F)n(C)n1	-3	0.63
CC(C)Oc1ccccc1CNC[C@H]1CC(C(N)=O)=NO1	-6	0.85
O=C1CCCCCN1CCNS(=O)(=O)N1CCCCC1	-6	0.83
Cc1cccc(N2N=C(C(=O)NCCn3ccnc3)CCC2=O)c1	-2	0.28
O=C(c1cc(Br)co1)N1CCC[C@H](CCO)CC1	-15	2.52
Cn1cccc1CN(Cc1cccs1)C(=O)Cc1ccc(F)cc1	-2	0.22
COc1ccc(F)c(F)c1C(=O)N(CCOc1ccccc1)C[C@H]1CCCO1	-3	0.4
COC(=O)c1c(F)cccc1NS(=O)(=O)c1cn[nH]c1	8	-1.12
Cc1cc(Cl)ccc1NC(=O)c1c(C)sc2c(C)c(C)[nH]c12	-7	0.94
CCn1nnc2c(=O)n(Cc3c(F)cccc3Cl)cnc21	-3	0.54
Clc1ccc(OCc2ccccc2)c(CNCc2ccco2)c1	-1	0.11
O=C([C@H]1CCS(=O)(=O)C1)N1CC(O)(c2ccc(Cl)cc2)C1	-11	1.48
CCn1c(C)nc2cc(NS(=O)(=O)c3ccccc3)cc(C(=O)N[C@H]3CCOC(C)(C)C3)c21	-3	0.38
N#Cc1cccc(S(=O)(=O)CCN2CC3CC=CCC3C2)c1 (stereo not given)	-13	1.2
CS(=O)(=O)N1CCN(C(=O)c2ccc3c(c2)CCO3)CC1	-3	0.3
CCCNCc1c[nH]nc1-c1cccs1	-9	1.21
CCN(CCCOc1ccc(C)c(C)c1)[C@H]1CCS(=O)(=O)C1	3	-0.43
CCn1ncnc1CNC1CC(c2ccc(Br)cc2)C1 (stereo not given)	-13	1.96
O=C(NCCOCCN1C(=O)CCC1=O)NC1CCCC1	-13	2.26
Cn1cc(S(=O)(=O)N2CCC(C(=O)Nc3ccccc3)CC2)c(=O)n(C)c1=O	-8	1.08
COc1ccccc1OCC(=O)Nc1ccccc1-n1cnnc1C	36	-4.88
Cc1cc(N2C[C@H](N(C)C)C3(CCOCC3)C2)nc(C)n1	-5	1.01
Cc1nnc([C@H]2CN(C(=O)c3ccccc3)CC23CCN(C(=O)Cc2cccnc2)CC3)o1	-19	2.83
Cc1[nH]ccc1C(=O)N(CCN(C)C)Cc1ccco1	-14	2.23
